Substitutions are numbered along the chain they refer to.
B1: hu56V1-Fc (PDL1 single domain antibody Fc fusion protein) (Fc fusion)
chain: QVQLVESGGGLVQPGGSLRLSCAASGKMSSRRCMAWFRQAPGKERERVAKLLTTSGSTYLADSVKGRFTISRDNSKNTVYLQMNSLRAEDTAVYYCAADSFEDPTCTLVTSSGAFQYWGQGTLVTVSS[sequence of human IgG1 Fc not given]
notes: VHH Hu56V1 fused to human IgG1-Fc; Biotinylated in the FcRn assay
B2: hu56V5-Fc (PDL1 single domain antibody Fc fusion protein) (Fc fusion)
chain: B1 chain with R87K
notes: VHH Hu56V5 fused to human IgG1-Fc; homodimer by the Fc
B3: hu56V2-Fc (PDL1 single domain antibody Fc fusion protein) (Fc fusion)
chain: B1 chain with K27F, M28T, S29F
notes: VHH Hu56V2 fused to human IgG1-Fc; homodimer by the Fc; Biotinylated in the FcRn assay; also called PDL1-hu56V2-Fc; KN035

Biological target: T1, PDL1-Chis protein (Homo sapiens (Human), UniProt Q9NZQ7 fragment)
T1 construct: Entry includes the C-terminal His tag; transiently expressed in HEK293
Experiment: ELISA; PDL1-Chis coated at 0.5 µg/well, anti-human IgG-Fc HRP

T1 sequence (Q9NZQ7 other isoform, or with tags, fused parts or gaps limits assumed): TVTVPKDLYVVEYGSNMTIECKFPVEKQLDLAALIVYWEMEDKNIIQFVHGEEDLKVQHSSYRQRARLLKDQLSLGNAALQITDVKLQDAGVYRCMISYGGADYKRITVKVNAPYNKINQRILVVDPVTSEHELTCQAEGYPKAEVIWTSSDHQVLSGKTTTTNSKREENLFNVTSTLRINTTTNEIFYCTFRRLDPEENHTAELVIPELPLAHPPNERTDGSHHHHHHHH

| EC50 | Binder |
| --- | --- |
| ~0.15 µg/mL | B1 |
| ~0.15 µg/mL | B2 |
| ~0.15 µg/mL | B3 |
